Measurements taken from publication PMC3891853.
Results are given in words; binding and its absence hold for the method and conditions named. In cells and extracts the contact can be indirect. Some entries that bind do so weakly or less than the wild type. Sequences can lack the tags named with a protein.

Chains of the proteins cited; added tags and fusions are not shown.
UniProt P11142: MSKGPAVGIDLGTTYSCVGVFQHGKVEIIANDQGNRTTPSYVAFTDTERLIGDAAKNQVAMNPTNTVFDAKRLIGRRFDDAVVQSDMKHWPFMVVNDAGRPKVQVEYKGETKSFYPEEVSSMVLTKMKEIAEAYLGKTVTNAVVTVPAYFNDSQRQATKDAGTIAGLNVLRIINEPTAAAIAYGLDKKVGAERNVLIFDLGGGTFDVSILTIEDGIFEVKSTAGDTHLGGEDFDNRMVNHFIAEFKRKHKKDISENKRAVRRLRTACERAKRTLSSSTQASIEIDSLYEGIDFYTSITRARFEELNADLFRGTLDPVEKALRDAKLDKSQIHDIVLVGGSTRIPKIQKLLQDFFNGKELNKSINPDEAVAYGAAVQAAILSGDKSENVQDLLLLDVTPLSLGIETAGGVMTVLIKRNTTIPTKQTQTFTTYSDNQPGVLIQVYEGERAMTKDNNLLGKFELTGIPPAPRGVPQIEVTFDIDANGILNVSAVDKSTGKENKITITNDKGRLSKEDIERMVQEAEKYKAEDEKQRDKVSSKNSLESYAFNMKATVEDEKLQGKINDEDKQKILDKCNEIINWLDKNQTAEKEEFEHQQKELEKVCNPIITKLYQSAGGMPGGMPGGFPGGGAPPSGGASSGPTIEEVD
UniProt Q9UNE7: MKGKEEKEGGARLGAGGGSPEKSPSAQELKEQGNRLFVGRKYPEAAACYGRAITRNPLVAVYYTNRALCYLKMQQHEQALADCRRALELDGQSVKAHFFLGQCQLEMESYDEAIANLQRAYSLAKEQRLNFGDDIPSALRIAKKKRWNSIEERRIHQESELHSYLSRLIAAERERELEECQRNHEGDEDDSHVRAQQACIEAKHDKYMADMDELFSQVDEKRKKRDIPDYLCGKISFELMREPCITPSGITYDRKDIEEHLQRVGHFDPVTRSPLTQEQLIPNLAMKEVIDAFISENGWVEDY
UniProt P10275: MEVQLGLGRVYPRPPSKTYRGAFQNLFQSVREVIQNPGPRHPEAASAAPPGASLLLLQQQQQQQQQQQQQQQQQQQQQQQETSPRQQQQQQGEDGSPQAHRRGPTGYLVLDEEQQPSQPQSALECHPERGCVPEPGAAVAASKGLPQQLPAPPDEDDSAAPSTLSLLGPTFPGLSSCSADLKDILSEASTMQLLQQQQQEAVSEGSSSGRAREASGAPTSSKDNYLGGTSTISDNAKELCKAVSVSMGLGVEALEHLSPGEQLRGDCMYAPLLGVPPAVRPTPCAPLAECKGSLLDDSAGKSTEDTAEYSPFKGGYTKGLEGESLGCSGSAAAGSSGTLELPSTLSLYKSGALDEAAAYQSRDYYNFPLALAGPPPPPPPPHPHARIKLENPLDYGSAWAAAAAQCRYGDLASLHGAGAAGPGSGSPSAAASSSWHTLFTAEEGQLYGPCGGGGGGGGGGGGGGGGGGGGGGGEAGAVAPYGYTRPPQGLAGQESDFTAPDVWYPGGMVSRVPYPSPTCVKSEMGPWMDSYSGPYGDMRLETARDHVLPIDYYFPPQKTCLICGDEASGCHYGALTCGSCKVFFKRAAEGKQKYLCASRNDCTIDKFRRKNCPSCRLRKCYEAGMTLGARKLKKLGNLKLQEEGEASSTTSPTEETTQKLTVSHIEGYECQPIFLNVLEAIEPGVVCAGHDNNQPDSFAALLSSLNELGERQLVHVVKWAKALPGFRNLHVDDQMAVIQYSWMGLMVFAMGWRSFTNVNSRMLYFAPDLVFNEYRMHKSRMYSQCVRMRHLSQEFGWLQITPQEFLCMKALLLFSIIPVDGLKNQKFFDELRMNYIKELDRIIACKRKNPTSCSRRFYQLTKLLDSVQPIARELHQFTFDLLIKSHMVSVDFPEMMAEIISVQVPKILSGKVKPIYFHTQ
UniProt P04150: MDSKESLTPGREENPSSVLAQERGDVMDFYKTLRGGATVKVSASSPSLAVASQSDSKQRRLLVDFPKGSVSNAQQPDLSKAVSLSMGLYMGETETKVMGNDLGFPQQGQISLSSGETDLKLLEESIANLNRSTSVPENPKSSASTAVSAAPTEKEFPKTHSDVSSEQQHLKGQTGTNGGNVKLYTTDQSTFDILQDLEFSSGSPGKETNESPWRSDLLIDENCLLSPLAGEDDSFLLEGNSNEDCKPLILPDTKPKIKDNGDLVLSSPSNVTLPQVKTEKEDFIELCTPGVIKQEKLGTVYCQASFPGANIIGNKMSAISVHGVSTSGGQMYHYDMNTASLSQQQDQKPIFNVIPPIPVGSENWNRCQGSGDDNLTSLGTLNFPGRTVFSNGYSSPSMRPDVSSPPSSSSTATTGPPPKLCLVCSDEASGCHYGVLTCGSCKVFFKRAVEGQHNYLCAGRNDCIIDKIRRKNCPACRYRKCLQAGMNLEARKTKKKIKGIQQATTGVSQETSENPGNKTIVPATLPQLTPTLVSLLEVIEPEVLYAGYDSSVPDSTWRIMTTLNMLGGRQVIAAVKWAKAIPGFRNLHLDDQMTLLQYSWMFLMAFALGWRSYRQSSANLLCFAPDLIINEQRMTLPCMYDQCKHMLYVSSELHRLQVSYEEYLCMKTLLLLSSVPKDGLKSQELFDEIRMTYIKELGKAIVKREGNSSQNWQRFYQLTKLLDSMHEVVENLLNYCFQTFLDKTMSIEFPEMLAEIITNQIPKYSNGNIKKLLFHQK
UniProt P08235: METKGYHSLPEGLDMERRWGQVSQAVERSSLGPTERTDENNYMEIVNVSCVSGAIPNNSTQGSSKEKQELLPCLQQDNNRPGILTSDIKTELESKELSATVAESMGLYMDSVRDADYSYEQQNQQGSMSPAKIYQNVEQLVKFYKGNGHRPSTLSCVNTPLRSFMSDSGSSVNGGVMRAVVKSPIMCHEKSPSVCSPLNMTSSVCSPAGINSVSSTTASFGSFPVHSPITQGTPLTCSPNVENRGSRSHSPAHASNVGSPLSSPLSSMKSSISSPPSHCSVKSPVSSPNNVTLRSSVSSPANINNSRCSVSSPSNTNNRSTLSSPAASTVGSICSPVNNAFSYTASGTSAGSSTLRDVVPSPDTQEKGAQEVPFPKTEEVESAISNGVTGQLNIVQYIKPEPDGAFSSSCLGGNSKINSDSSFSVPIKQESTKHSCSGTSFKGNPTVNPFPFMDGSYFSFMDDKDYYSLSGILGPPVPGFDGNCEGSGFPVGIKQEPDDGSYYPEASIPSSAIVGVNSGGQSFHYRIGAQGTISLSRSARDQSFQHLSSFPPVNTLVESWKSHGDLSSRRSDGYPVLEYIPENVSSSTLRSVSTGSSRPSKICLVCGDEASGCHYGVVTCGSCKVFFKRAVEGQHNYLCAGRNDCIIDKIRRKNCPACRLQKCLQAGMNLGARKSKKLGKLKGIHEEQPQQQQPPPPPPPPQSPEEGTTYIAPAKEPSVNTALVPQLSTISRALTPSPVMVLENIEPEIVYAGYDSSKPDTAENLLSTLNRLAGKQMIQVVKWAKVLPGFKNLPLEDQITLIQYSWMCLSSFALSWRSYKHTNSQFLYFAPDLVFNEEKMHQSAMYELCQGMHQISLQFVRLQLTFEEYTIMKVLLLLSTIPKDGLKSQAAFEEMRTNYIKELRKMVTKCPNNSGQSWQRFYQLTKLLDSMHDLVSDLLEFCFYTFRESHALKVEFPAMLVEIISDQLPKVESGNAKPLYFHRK
UniProt P25685: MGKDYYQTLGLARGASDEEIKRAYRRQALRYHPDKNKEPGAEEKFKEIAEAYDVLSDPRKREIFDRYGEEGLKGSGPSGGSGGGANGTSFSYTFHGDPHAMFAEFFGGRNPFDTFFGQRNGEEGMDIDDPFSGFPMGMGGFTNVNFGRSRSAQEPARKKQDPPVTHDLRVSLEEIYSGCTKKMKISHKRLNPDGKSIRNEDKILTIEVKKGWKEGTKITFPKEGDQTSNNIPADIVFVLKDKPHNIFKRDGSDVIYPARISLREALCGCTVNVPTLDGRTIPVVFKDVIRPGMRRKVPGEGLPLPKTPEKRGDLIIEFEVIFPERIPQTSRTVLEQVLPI
UniProt P0DMV8: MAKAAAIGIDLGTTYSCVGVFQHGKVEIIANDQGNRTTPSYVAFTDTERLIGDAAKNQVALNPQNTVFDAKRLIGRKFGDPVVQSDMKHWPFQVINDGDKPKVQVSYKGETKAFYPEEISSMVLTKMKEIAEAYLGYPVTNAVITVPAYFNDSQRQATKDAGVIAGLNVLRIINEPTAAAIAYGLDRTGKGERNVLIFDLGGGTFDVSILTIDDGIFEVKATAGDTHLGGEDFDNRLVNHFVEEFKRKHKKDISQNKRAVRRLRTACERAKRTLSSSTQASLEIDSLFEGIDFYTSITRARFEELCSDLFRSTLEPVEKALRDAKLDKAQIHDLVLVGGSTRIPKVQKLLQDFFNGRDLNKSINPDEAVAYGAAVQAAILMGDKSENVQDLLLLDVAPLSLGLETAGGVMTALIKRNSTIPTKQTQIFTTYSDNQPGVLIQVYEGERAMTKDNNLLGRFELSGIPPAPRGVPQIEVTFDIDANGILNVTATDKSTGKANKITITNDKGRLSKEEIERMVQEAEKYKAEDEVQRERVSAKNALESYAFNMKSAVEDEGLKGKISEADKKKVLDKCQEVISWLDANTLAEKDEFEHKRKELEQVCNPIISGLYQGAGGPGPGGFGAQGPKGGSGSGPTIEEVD

Assays:
[1] = biological target: T1, Flag-tagged HspBP1_mut (A137R, K249A) (human) (UniProt Q9NZL4); assay: co-IP; Flag-tagged NEF precipitated with anti-Flag M2 agarose from 1.5 mg HEK293 cellular extract in 1 ml; no ATP added; eluted with Flag-peptide; Western blot and colloidal Coomassie
T1 sequence: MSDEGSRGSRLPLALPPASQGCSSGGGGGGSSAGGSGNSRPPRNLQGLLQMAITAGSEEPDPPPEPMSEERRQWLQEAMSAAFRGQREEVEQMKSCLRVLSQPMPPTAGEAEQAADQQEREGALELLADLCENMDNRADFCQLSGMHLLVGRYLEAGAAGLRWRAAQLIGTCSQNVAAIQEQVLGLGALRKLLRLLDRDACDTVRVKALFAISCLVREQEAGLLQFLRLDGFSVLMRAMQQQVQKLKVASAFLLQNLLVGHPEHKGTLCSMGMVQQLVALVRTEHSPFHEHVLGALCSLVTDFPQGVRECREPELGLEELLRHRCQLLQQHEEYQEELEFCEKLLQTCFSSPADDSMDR

[2] = biological target: T2, Flag-tagged wild-type Hsp70 binding protein 1 (HspBP1) (human) (UniProt Q9NZL4); assay: as above
T2 sequence: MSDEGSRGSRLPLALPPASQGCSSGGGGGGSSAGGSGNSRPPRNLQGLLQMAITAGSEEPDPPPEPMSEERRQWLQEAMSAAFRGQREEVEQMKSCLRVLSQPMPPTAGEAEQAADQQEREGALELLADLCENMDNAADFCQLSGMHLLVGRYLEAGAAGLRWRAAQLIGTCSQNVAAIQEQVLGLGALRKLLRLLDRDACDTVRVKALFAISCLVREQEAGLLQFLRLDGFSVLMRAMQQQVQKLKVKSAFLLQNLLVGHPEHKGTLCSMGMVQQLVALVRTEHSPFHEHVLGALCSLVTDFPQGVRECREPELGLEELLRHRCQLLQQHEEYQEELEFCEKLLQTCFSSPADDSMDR

[3] = biological target: Hsc70, in vitro translated and labeled (UniProt P11142); assay: pull-down; same chaperone-binding assay; 7 µM purified NEF pre-incubated for 15 min at room temperature with in vitro translated Hsc70 in reticulocyte lysate before GR-LBD agarose was added; read-out is Hsc70 bound to GR-LBD; only the binder purified

For “CHIP (E3-ligase), endogenous (from UniProt Q9UNE7 1-303) (enzyme)”, the binding [1] was “binds weakly” and the binding [2] was “binds”.

With “HA-tagged androgen receptor (AR) (from UniProt P10275 1-920)” the binding [1] was “no binding”.

With “HA-tagged glucocorticoid receptor (GR) (from UniProt P04150 1-777)” the binding [1] was “no binding”.

For “HA-tagged mineralocorticoid receptor (MR) (from UniProt P08235 1-984)”, the binding [1] was “no binding”.

“Hsc70 (constitutively expressed heat shock protein 70 kilodalton), endogenous (from UniProt P11142 1-646)” was tested, and the binding [2] was “binds”.

In the case of “Hsp40/Hdj1, endogenous (from UniProt P25685 1-340)”, the binding [2] is reported as “no binding”.

With “inducible Hsp70, endogenous (from UniProt P0DMV8 1-641)” the binding [1] was “binds weakly” and the binding [2] was “binds”.

B1: purified wild-type HspBP1 (His-tagged) (protein, UniProt Q9NZL4 1-359)
chain: MSDEGSRGSRLPLALPPASQGCSSGGGGGGSSAGGSGNSRPPRNLQGLLQMAITAGSEEPDPPPEPMSEERRQWLQEAMSAAFRGQREEVEQMKSCLRVLSQPMPPTAGEAEQAADQQEREGALELLADLCENMDNAADFCQLSGMHLLVGRYLEAGAAGLRWRAAQLIGTCSQNVAAIQEQVLGLGALRKLLRLLDRDACDTVRVKALFAISCLVREQEAGLLQFLRLDGFSVLMRAMQQQVQKLKVKSAFLLQNLLVGHPEHKGTLCSMGMVQQLVALVRTEHSPFHEHVLGALCSLVTDFPQGVRECREPELGLEELLRHRCQLLQQHEEYQEELEFCEKLLQTCFSSPADDSMDR
B1 was tested, and the binding [3] was “binds”.
